From PubChem BioAssay AID485360 (National Center for Advancing Translational Sciences (NCATS), 2010)
Among all 230,000 compounds or so, about 1,500 (0.65%) were called active. This list was built around the results that the source calls inconclusive (neither active nor inactive); the mix of calls is not that of the screen. Calls follow the shape of the dose curve; as a rule, active = well fitted inhibition curve with a large enough effect; inconclusive = small, poorly fitted or top-dose-only effect; inactive = no such curve, though single readings can be large or run the other way. Potencies of inconclusive entries are doubtful fits and often do not repeat.

Target: Lethal(3)malignant brain tumor-like protein 1 (Homo sapiens) (UniProt Q9Y468)
Experiment: qHTS Assay for the Inhibitors of L3MBTL1; also: nearly all actives have a fitted effect of over 60% in size
Conditions: AlphaScreen L3MBTL1–H3K9me1 peptide binding; activity, negative = inhibition: at 57.1 µM (top of the series)
Summary of the method: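 Read-out is AlphaScreen signal from streptavidin donor and nickel chelate acceptor beads (10 ug/mL final each) bridging L3MBTL1 (50 nM) and biotinylated K9-monomethylated H3(1-15) peptide (75 nM), after 30 min compound exposure at room temperature.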
% is scaled to controls: 0 for no effect and ±100 for the full control effect; potency is read from the fitted curve at half-maximal effect; tags tell the direction and shape of the fitted curve.

UniProt Q9Y468, sequence (Q9Y468 whole entry, looked up): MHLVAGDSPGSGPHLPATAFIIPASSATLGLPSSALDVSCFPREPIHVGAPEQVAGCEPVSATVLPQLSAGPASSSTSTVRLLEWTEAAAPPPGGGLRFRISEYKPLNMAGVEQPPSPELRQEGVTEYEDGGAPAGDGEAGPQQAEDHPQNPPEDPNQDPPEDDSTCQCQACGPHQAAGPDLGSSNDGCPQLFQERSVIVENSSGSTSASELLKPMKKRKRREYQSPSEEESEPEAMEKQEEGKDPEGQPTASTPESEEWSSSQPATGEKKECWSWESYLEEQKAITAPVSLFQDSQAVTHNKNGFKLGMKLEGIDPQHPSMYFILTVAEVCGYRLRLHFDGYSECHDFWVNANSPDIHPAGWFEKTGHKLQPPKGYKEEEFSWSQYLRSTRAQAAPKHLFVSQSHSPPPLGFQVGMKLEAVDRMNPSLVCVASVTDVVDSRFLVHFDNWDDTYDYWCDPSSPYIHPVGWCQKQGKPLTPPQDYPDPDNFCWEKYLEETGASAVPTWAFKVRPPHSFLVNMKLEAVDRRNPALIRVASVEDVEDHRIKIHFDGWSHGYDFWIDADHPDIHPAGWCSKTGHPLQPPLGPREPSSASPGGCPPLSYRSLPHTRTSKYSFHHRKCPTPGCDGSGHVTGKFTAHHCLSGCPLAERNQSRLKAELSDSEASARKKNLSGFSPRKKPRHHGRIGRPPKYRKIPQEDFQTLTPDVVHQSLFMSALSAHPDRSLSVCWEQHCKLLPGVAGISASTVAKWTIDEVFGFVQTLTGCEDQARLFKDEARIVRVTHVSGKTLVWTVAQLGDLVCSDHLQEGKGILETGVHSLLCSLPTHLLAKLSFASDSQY

Row | Structure (SMILES) | Potency | activity, negative = inhibition
1 | Oc1ccc(/C=N/Nc2ncc(Br)cn2)c(O)c1 | inconclusive: 39.8 µM [inhibitor, single point] | 
2 | Cc1ccccc1N1C(=O)C2C3CCC(O3)C2C1=O (stereo not drawn) | inconclusive: 7.08 µM [inhibitor, single point] | 
3 | COc1ccc2c(c1)Sc1ccccc1N2 | inconclusive: 7.08 µM [inhibitor, full curve] | 
4 | S=C(NCCCn1ccnc1)Nc1ccc(Cl)cc1Cl |  | inactive: -2.89% [at 11.4 µM]
5 | S=c1[nH]nc(-c2cc(-c3ccccc3)n[nH]2)n1/N=C/C(Br)=C/c1ccccc1 | inconclusive: 12.6 µM [inhibitor, partial curve] | 
6 | Cc1ccc2nc(N(CCN3CCOCC3)C(=O)CCS(=O)(=O)c3ccccc3)sc2c1 | inactive | 
7 | Cn1c(CC(=O)Nc2ccccc2)n[nH]c1=S | inactive | 
8 | O=C(c1nc2n(n1)C(c1ccc(Cl)cc1)C=C(c1ccccc1)N2)N1CCOCC1 (stereo not drawn) | inactive | 
9 | O=C(CO/N=C/c1ccc(OC(F)F)cc1)N1CCc2ccccc21 | inactive | 
10 | Cc1nnc(NC(=O)C2CCN(S(=O)(=O)c3ccc(F)c(Cl)c3)CC2)o1 | active: 35.5 µM | 
11 | COc1ccc(-c2cnc(SCC(=O)Nc3cc(C)on3)n2Cc2ccco2)cc1 | inactive | 
12 | COc1ccc(NC(=O)CSc2nnc(Cc3cccn3C)n2-c2ccc(F)cc2)cc1 | inactive | 
13 | Cc1cccc(CSc2cccc3cccnc23)c1 | inconclusive: 28.2 µM [inhibitor, single point] | 
14 | COc1cccc(C2C(C(=O)c3cc4cccc(OC)c4o3)=C(O)C(=O)N2c2cc(C)on2)c1OC (stereo not drawn) | inactive | 
15 | Cc1cccc(Nc2nc(N)c([N+](=O)[O-])c(N3CCCC(C)C3)n2)c1 (stereo not drawn) | active: 31.6 µM | 
16 | COc1ccc2c(C)cc(SCC(=O)Nc3ccc(Cl)cn3)nc2c1 | inconclusive: 31.6 µM [inhibitor, single point] | 
17 | N#C/C(=C\Nc1ccccc1SC(F)(F)F)c1nc(-c2ccc(Cl)cc2)cs1 | inconclusive: 14.1 µM [inhibitor, partial curve] | 
18 | N=C1S/C(=C\c2ccco2)C(=O)N1c1ccc2c(c1)OCO2 | inconclusive: 25.1 µM [inhibitor, partial curve] | 
19 | O=C(/C=C/c1ccco1)NC(=S)Nc1ccc(O)c(-c2nc3ccccc3s2)c1 | inconclusive: 35.5 µM [inhibitor, single point] | 
20 | CCOC(=O)C1CCCN(Cc2ccc(OC)cc2OC)C1 (stereo not drawn) | inactive | 
21 | CCC(=O)N1CCc2cc(Br)cc(S(=O)(=O)N3CCCCCC3)c21 | inconclusive: 4.47 µM [inhibitor, single point] | 
22 | OC(COCC1COc2ccccc2O1)CN1CCCCC1 (stereo not drawn) | inactive | 
23 | CCC(C)Nc1c([N+](=O)[O-])cc(C)cc1[N+](=O)[O-] (stereo not drawn) | inconclusive: 31.6 µM [inhibitor, single point] | 
24 | CCC(CC)c1nnc(NC(=O)CN2C(=O)c3ccccc3C2=O)s1 | inactive | 
25 | CCCOc1ccc2nc(C)c(CCC)c(SC(=N)N)c2c1 | inactive | 

Row | Structure (SMILES) | Potency | activity, negative = inhibition
26 | COc1ccc(NC(=O)CN(C)C(=O)CSc2nc3ccccc3s2)cc1 | inconclusive: 28.2 µM [inhibitor, single point] | 
27 | CC1=CC2=NC(=O)CC(C)(C(=O)N(CC(=O)NC3CCCC3)c3cc(C)cc(C)c3)N2C=C1 (stereo not drawn) | inconclusive: 39.8 µM [inhibitor, partial curve] | 
28 | Cc1ccc(N2C(=O)C3ON(c4ccccc4)C(CC(C)C)C3C2=O)cc1 (stereo not drawn) | inactive | 
29 | COC(=O)c1ccc(NC(=O)C23CC4CC(C2)CC(n2cnc(Cl)n2)(C4)C3)cc1 | inconclusive: 3.98 µM [inhibitor, single point] | 
30 | CCOC(=O)C1=C(C)NC(=O)NC1c1ccc(OCC(N)=O)cc1 (stereo not drawn) | inconclusive: 6.31 µM [inhibitor, single point] | 
31 | Clc1ccc(-c2nnc3sc(Cc4cccs4)nn23)cc1 | inconclusive: 28.2 µM [inhibitor, single point] | 
32 | CCOC(=O)/C=C(\C)Sc1cc(O)c2ccccc2c1O | inconclusive: 8.91 µM [inhibitor, partial curve] | 
33 | CCc1cccc(CC)c1N1C(=O)c2cc(N3CCOCC3)c([N+](=O)[O-])cc2C1=O | inconclusive: 10 µM [inhibitor, partial curve] | 
34 | Oc1ccc2ccccc2c1N=Nc1ccc(F)cc1 | inconclusive: 6.31 µM [inhibitor, full curve] | 
35 | Cc1ccccc1-n1c(-c2ccco2)n[nH]c1=S | inactive | 
36 | CCOC(=O)CSc1nc(C2CC2)cc(-c2ccc(Cl)cc2)c1C#N | inactive | 
37 | CCN(CC(=O)NC1CCS(=O)(=O)C1)C(C)C(=O)Nc1ccc(F)cc1 (stereo not drawn) | inactive | 
38 | O=C(O)c1ccccc1-n1ncc2c1/C(=C/c1ccc(Cl)cc1)CC2 | inactive | 
39 | CC1(C)CC(=O)C2=C(C1)NC1=C(C(=O)c3ccccc31)C2c1ccc(Cl)cc1 (stereo not drawn) | inconclusive: 14.1 µM [inhibitor, partial curve] | 
40 | CN(C)S(=O)(=O)c1ccc2c(c1)/C(=C/c1cc3c([nH]1)CCCC3)C(=O)N2 | inactive | 
41 | CC12COC3(C(N)=O)CC1CCC32C (stereo not drawn) | inconclusive: 0.708 µM [inhibitor, single point] | 
42 | O=C(NCCC1CCCC1)c1cccs1 | inconclusive: 7.08 µM [inhibitor, single point] | 
43 | Cc1nnc(SCC2=C(C(=O)O)N3C(=O)C(NC(=O)COc4ccc(F)cc4)C3SC2)s1 (stereo not drawn) | inconclusive: 28.2 µM [inhibitor, single point] | 
44 | COc1cc(C(=O)NNC(=O)/C=C/c2ccco2)cc(OC)c1OC | inactive | 
45 | COC(=O)c1cc(=O)nc2sc(-c3ccc(F)cc3)nn12 | inactive | 
46 | Cc1ccc(/C(N)=N/OC(=O)Cc2cccs2)cc1 | inactive | 
47 | Cc1nn(-c2ccccc2)c2c1C(c1ccc(Br)s1)C(C#N)=C(N)O2 (stereo not drawn) | inconclusive: 12.6 µM [inhibitor, partial curve] | 
48 | Cc1cccc(NC(=O)CSc2nnc(-c3ccco3)c(-c3ccco3)n2)c1C | inconclusive: 35.5 µM [inhibitor, single point] | 
49 | CCCCCSc1nc2c(c(=O)[nH]c(=O)n2C)n1C(C)C | inconclusive: 39.8 µM [inhibitor, single point] | 
50 | CC(C)c1ccc(NC(=S)NN2C(C)CCCC2C)cc1 (stereo not drawn) | inconclusive: 44.7 µM [inhibitor, partial curve, poor fit] | 

Row | Structure (SMILES) | Potency | activity, negative = inhibition
51 | CN(C)c1ccc(C(CNC(=O)c2ccccc2Br)c2c[nH]c3ccccc23)cc1 (stereo not drawn) | inconclusive: 14.1 µM [inhibitor, partial curve] | 
52 | O=C(N/N=C/c1ccc(-c2cccc(C(F)(F)F)c2)o1)c1cccc(F)c1 | inconclusive: 5.62 µM [inhibitor, single point] | 
53 | CCc1nnc(N/N=C/c2ccc(-c3ccc([N+](=O)[O-])cc3)o2)n1N | inconclusive: 4.47 µM [inhibitor, full curve] | 
54 | COc1ccc(NC(C)C(=O)N/N=C/c2cc(Br)ccc2OC)cc1 (stereo not drawn) | inconclusive: 0.282 µM [inhibitor, full curve] | 
55 | CC(C)(C)SCCNC(=O)c1cccc([N+](=O)[O-])c1 | inconclusive: 5.01 µM [inhibitor, single point] | 
56 | Cc1nn(-c2nnc(NC3CCCCC3)nn2)c(C)c1Br | inconclusive: 15.8 µM [inhibitor, single point] | 
57 | OCCCc1nc2n(n1)C(c1ccccc1)C=C(c1ccc(F)cc1)N2 (stereo not drawn) | inconclusive: 4.47 µM [inhibitor, full curve] | 
58 | Cn1c(-c2ccc(C(C)(C)C)cc2)n[nH]c1=S | inactive | 
59 | Cc1ccc(C(=O)c2cc3c(cc2[N+](=O)[O-])OCCO3)cc1 | inactive | 
60 | Cc1onc(-c2ccccc2)c1C(=O)Nc1sc2c(c1C#N)CCC2 | inconclusive: 31.6 µM [inhibitor, single point] | 
61 | CCOC12NC(=O)CC(=O)N1C(c1ccccc1)=CS2 (stereo not drawn) | inactive | 
62 | COc1cccc(C2/C(=C(/O)c3cnn(-c4ccccc4)c3C)C(=O)C(=O)N2CCN(C)C)c1OC (stereo not drawn) | inactive | 
63 | Cc1ccc(N(CC(=O)NCc2ccc(F)cc2)C(=O)c2csnn2)cc1C | inconclusive: 0.141 µM [inhibitor, full curve, poor fit] | 
64 | Cc1ccc(Nc2nc(N)c3ccccc3n2)cc1C | inconclusive: 5.01 µM [inhibitor, single point] | 
65 | COc1ccc(C2CC(c3ccc(F)cc3)Nc3nc(N)nn32)cc1 (stereo not drawn) | inconclusive: 31.6 µM [inhibitor, single point] | 
66 | NNC(=O)CCN(Cc1ccco1)S(=O)(=O)c1ccc(Cl)cc1 | inconclusive: 44.7 µM [inhibitor, partial curve, poor fit] | 
67 | COc1ccc(OC)c(NC(=O)NNC(=O)CCCOc2ccc(Cl)cc2C)c1 | inconclusive: 28.2 µM [inhibitor, single point] | 
68 | CC(=O)N(C)c1nnc(-c2ccccn2)s1 | inactive | 
69 | CC(NC(=O)CSc1nc2sc3c(c2c(=O)n1-c1ccccc1)CCCC3)c1ccccc1 (stereo not drawn) | inactive | 
70 | CN(c1ccccc1C(=O)NCC1CCCO1)S(C)(=O)=O (stereo not drawn) | inconclusive: 6.31 µM [inhibitor, single point] | 
71 | C[C@@H]1CN(Cc2nc(-c3ccc(Cl)cc3)no2)C[C@H](C)O1 | inconclusive: 39.8 µM [inhibitor, single point] | 
72 | COc1ccc(NC(=S)NCC2CCN(c3ccc(OC)cc3)C2)cc1 (stereo not drawn) | inconclusive: 35.5 µM [inhibitor, partial curve] | 
73 | Cc1ccc(C(=O)O/N=C2\CCCc3ccccc32)cc1 | inconclusive: 6.31 µM [inhibitor, single point] | 
